From PMC6308302, “Identification of Pharmacokinetic Markers for Guanxin Danshen Drop Pills in Rats by Combination of Pharmacokinetics, Systems Pharmacology, and Pharmacodynamic Assays” (Frontiers in Pharmacology, 2018)

Legend:
[1] = Multiple component PK study in rat plasma after p.o. GDDP (HPLC-MS); conditions: for AUC(0-inf) / AUC(0-t) / MRT inf / MRT last / Tmax / Cmax / half-life: Sprague-Dawley, rat, plasma, po
[2] = Stability tests in rat plasma (QC samples, HPLC-MS); conditions: n=5
[3] = Aqueous solubility test (vortexing in water); format: physicochemical; conditions: thermodynamic from solid, determined, 25 °C, 1 atm
Protocol: Aqueous solubility (S) test of the 17 ingredients was performed by vortexing 10 mg of each ingredient in […] water in a test tube at ambient temperature and 1 atm. After vortexing for 5 min, if the solution is clear, the tested object will be considered as soluble in water. In silico assessment of the physicochemical properties governing permeation and intestinal absorption was carried out for the 17 ingredients studied. Theory aqueous solubility (S) was calculated with ALOGPS 2.1 online software via the Virtual Computational Chemistry Laboratory service (Chemoinformatics Group, Neuherberg, Germany) (VCCLAB^1). The octanol–water partition coefficient (cLogP), the total hydrogen bond count (donors and acceptors), and topological polar surface area (TPSA) were determined using the Molinspiration Property Calculator (Molinspiration Cheminformatics, Bratislava, Slovak Republic^2). Lipinski’s rule of 5 was used to predict the permeability of the compound ([Lipinski et al., 2001]).

[4] = test system: Caco-2 cell monolayers; conditions: ref Lu et al., 2008, Liu et al., 2009, Hu et al., 2014, Bowles et al., 2017, cited from earlier work
[5] = test system: isoprenaline-induced MI in mice; assay: In vivo anti-MI study: isoprenaline-induced myocardial injury (ECG, H&E histology)
[6] = 24h in auto-sampler vials, spiked 2 ng/mL
[7] = 24h in auto-sampler vials, spiked 400 ng/mL
[8] = 24h in auto-sampler vials, spiked 1600 ng/mL
[9] = Placing plasma for 6h at 4°C, spiked 2 ng/mL
[10] = Placing plasma for 6h at 4°C, spiked 400 ng/mL
[11] = Placing plasma for 6h at 4°C, spiked 1600 ng/mL
[12] = three freeze-thaw cycles, rat plasma, spiked 2 ng/mL
[13] = three freeze-thaw cycles, rat plasma, spiked 400 ng/mL
[14] = Caco-2 cell monolayers, from literature

CC(C)=CCC[C@](C)(O[C@@H]1O[C@H](CO)[C@@H](O)[C@H](O)[C@H]1O)[C@H]1CC[C@]2(C)[C@@H]1[C@H](O)C[C@@H]1[C@@]3(C)CC[C@H](O)C(C)(C)[C@@H]3[C@@H](O[C@@H]3O[C@H](CO)[C@@H](O)[C@H](O)[C@H]3O)C[C@]12C [Rg1, ginsenoside Rg1]
determination in rat plasma at the planned successive PK time points ([1]; GDDP 0.8 g/kg p.o., 5, 10, 15, 30, 45, 60, and 120 min, LOQ 1.0–1.4 ng/mL): could be determined
detection in rat plasma ([1]; GDDP 0.8 g/kg p.o., at 5, 10, 15, 30, 45, or 60 min, LOD 0.5–0.7 ng/mL): could be detected
AUC(0-inf) ([1]; 0.4 g/kg): 82.7 ± 21.2 ng·h/mL
AUC(0-t) ([1]; 0.4 g/kg): 50.6 ± 2.59 ng·h/mL
MRT inf ([1]; 0.4 g/kg): 4.07 ± 2.07 h
MRT last ([1]; 0.4 g/kg): 1.88 ± 0.05 h
Tmax ([1]; 0.4 g/kg): 0.38 ± 0.18 h
Cmax ([1]; 0.4 g/kg, Cmax, rat plasma, GDDP 0.4 g/kg p.o. (Low dose group), n=3): 25.5 ± 2.85 ng/mL
AUC(0-inf) ([1]; 0.8 g/kg): 60.9 ± 6.56 ng·h/mL
AUC(0-t) ([1]; 0.8 g/kg): 54.7 ± 8.97 ng·h/mL
MRT inf ([1]; 0.8 g/kg): 1.75 ± 0.43 h
MRT last ([1]; 0.8 g/kg): 1.35 ± 0.23 h
Tmax ([1]; 0.8 g/kg): 0.09 ± 0.13 h
Cmax ([1]; 0.8 g/kg, Cmax (high / low plasma drug concentrations), rats, GDDP 0.4 and 0.8 g/kg p.o., classification): > 20 ng/mL
Cmax ([1]; 0.8 g/kg, Cmax, rat plasma, GDDP 0.8 g/kg p.o. (High dose group), n=3): 52.9 ± 25.3 ng/mL
half-life ([1]; 0.8 g/kg, t1/2 β (fast / slow elimination type), rats, GDDP 0.4 and 0.8 g/kg p.o., classification): < 2 h
half-life ([1]; 0.8 g/kg, t1/2 β, rat plasma, GDDP 0.8 g/kg p.o. (High dose group), n=3): 0.88 ± 0.38 h
Cltot ([1]; rat plasma, GDDP 0.4 g/kg p.o. (Low dose group), n=3): 510 ± 131 mL/min/kg
Cltot ([1]; rat plasma, GDDP 0.8 g/kg p.o. (High dose group), n=3): 1350 ± 141 mL/min/kg
Stability: Measured [2, 6]: 1.69 ± 0.24 ng/mL
Stability: RE [2, 6]: -15.63%
Stability: Measured [2, 7]: 433.65 ± 26.28 ng/mL
Stability: RE [2, 7]: 8.41%
Stability: Measured [2, 8]: 1628.29 ± 28.27 ng/mL
Stability: RE [2, 8]: 1.77%
Stability: Measured [2, 9]: 1.75 ± 0.30 ng/mL
Stability: RE [2, 9]: -12.46%
Stability: Measured [2, 10]: 457.68 ± 22.23 ng/mL
Stability: RE [2, 10]: 14.42%
Stability: Measured [2, 11]: 1841.18 ± 22.14 ng/mL
Stability: RE [2, 11]: 15.07%
Stability: Measured [2, 12]: 1.75 ± 0.23 ng/mL
Stability: RE [2, 12]: -12.60%
Stability: Measured [2, 13]: 456.97 ± 15.97 ng/mL
Stability: RE [2, 13]: 14.24%
solubility at 5 min [3]: > 10000 µg/mL
Papp(apical→basolateral) [4, 14]: > 0.1^c ×10^-6 cm/s
Papp(basolateral→apical) [4, 14]: > 0.1^c ×10^-6 cm/s
apparent permeability in Caco-2 cell monolayers ([4]; previous results): > 10^-7 cm/s
ST segment elevations on the seventh day of the trial ([5]; 40 mg/kg p.o. for 7 days, compared with model group, P < 0.05): significantly decreased
anti-MI effect (overall conclusion) ([5]; 40 mg/kg p.o. for 7 days, isoprenaline-induced MI): favorable anti-MI effect
ECG (lead II) findings on the fifth day of the trial ([5]; 40 mg/kg p.o., isoprenaline 5 mg/kg on days 4 and 5): T waves reversed or decreased

Marks after values point to notes of the source that are not given here.
